# The full data set covers some 21,000 targets. This sample favours those with the largest changes.
# Compound: CC1Cc2ccccc2N1C(=O)C1CCCN(C1)C(=O)CCl (mixture of isomers) [TRIM25 ligand 11 (diastereomer mixture)]
# Test: probe-labelled cysteine peptide fold change vs DMSO (competition) (log2 fold change); higher = less target engagement (more negative = stronger competition)
# Conditions: 10 µM; THP-1; incubation time: 4 h
# 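Also: competitive chemoproteomic profiling in live THP-1 cells with an iodoacetamide desthiobiotin (IA-DTB) probe, comparing probe-labelled peptide intensities in compound-treated cells against DMSO-treated controls.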
row,Target,probe-labelled cysteine peptide fold change
1,CORO1A_P31146_24_HVFGQPAKADQCYEDVR (UniProt P31146),-0.603
2,DCAF12_Q5T6F0_177_LPTLDPVCVGDDGHK (UniProt Q5T6F0),0.0668
3,CTPS1_P17812_491_CLEEQGLK (UniProt P17812),-0.0213
4,CPSF1_Q10570_532_SIRPQVVTTFELPGCYDMWTVIAPVR (UniProt Q10570),-0.12
5,CORO1A_P31146_332_GLEVNKCEIAR (UniProt P31146),-0.741
6,CUL9_Q8IWT3_2300_CTFHHQAR (UniProt Q8IWT3),-0.089
7,DTX3L_Q8TDB6_309_QECVSLADSK (UniProt Q8TDB6),0.138
8,CSTF3_Q12996_422_HHVYVTAALMEYYCSK (UniProt Q12996),0.055
9,CUL4A_Q13619_379_DKVDHVIEVCFQK (UniProt Q13619),-0.0311
10,DOCK5_Q9H7D0_1428_QYMQCFTVK (UniProt Q9H7D0),0.116
11,DGKZ_Q13574_1050_YLLDHAPPEILDAVEENGETCLHQAAALGQR (UniProt Q13574),-0.0159
12,DCAF5_Q96JK2_368_QPGCTGDLDGR (UniProt Q96JK2),0.162
13,CTSC_P53634_331_YAQDFGLVEEACFPYTGTDSPCK (UniProt P53634),0.118
14,DCAF12_Q5T6F0_380_LSACYGSK (UniProt Q5T6F0),0.0274
15,DUS2_Q9NX74_373_MCLLEWCR (UniProt Q9NX74),0.00852
16,CRIP1_P50238_28_DWHRPCLK (UniProt P50238),-0.284

row,Target,probe-labelled cysteine peptide fold change
1,CRTAP_O75718_273_DFYLSIADHYVEVLECK (UniProt O75718),0.358
2,CSK_P41240_422_NCWHLDAAMR (UniProt P41240),0.0715
3,DGLUCY_Q7Z3D6_265_APPGCLTPER (UniProt Q7Z3D6),-0.0418
4,DHX9_Q08211_1029_SSVNCPFSSQDMK (UniProt Q08211),-0.114
5,CUL3_Q13618_462+464_LKTECGCQFTSK (UniProt Q13618),-0.109
6,DOK2_O60496_110_GDWVQAICLLAFPGQR (UniProt O60496),-0.089
7,DDX59_Q5T1V6_453_LFKPPVLVFVDCK (UniProt Q5T1V6),-0.0453
8,DOCK10_Q96BY6_2164_GVDQTCTR (UniProt Q96BY6),-0.14
9,DNAJB1_P25685_179_VSLEEIYSGCTKK (UniProt P25685),-0.583
10,DDX19A_Q9NUU7_392_VLVTTNVCAR (UniProt Q9NUU7),0.0847
11,CORO1A_P31146_40_VSQTTWDSGFCAVNPK (UniProt P31146),0.0684
12,CPSF2_Q9P2I0_187_EIHLNGCSLEMLSRPSLLITDSFNATYVQPR (UniProt Q9P2I0),-0.0875
13,DHX57_Q6P158_221_MCDGDVGASLEHLLTQCFSETFGER (UniProt Q6P158),0.0477
14,DNMT1_P26358_1476+1478_GVCSCVEAGK (UniProt P26358),-0.213
15,DAXX_Q9UER7_720_LSQTPHSQPPRPGTCK (UniProt Q9UER7),-0.0465

# Same assay, conditions: 50 µM; THP-1; incubation time: 4 h
row,Target,probe-labelled cysteine peptide fold change
1,CORO1A_P31146_24_HVFGQPAKADQCYEDVR (UniProt P31146),-0.423
2,DCAF12_Q5T6F0_177_LPTLDPVCVGDDGHK (UniProt Q5T6F0),-0.175
3,CTPS1_P17812_491_CLEEQGLK (UniProt P17812),-0.0287
4,CPSF1_Q10570_532_SIRPQVVTTFELPGCYDMWTVIAPVR (UniProt Q10570),-0.29
5,CORO1A_P31146_332_GLEVNKCEIAR (UniProt P31146),-0.332
6,CUL9_Q8IWT3_2300_CTFHHQAR (UniProt Q8IWT3),-0.0958
7,DTX3L_Q8TDB6_309_QECVSLADSK (UniProt Q8TDB6),0.054
8,CSTF3_Q12996_422_HHVYVTAALMEYYCSK (UniProt Q12996),0.278
9,CUL4A_Q13619_379_DKVDHVIEVCFQK (UniProt Q13619),-0.00416
10,DOCK5_Q9H7D0_1428_QYMQCFTVK (UniProt Q9H7D0),0.15
11,DGKZ_Q13574_1050_YLLDHAPPEILDAVEENGETCLHQAAALGQR (UniProt Q13574),0.0164
12,DCAF5_Q96JK2_368_QPGCTGDLDGR (UniProt Q96JK2),0.101
13,CTSC_P53634_331_YAQDFGLVEEACFPYTGTDSPCK (UniProt P53634),0.102
14,DCAF12_Q5T6F0_380_LSACYGSK (UniProt Q5T6F0),0.0315
15,DUS2_Q9NX74_373_MCLLEWCR (UniProt Q9NX74),-0.0687
16,CRIP1_P50238_28_DWHRPCLK (UniProt P50238),-0.267

row,Target,probe-labelled cysteine peptide fold change
1,CRTAP_O75718_273_DFYLSIADHYVEVLECK (UniProt O75718),-0.0254
2,CSK_P41240_422_NCWHLDAAMR (UniProt P41240),0.0985
3,DGLUCY_Q7Z3D6_265_APPGCLTPER (UniProt Q7Z3D6),-0.0951
4,DHX9_Q08211_1029_SSVNCPFSSQDMK (UniProt Q08211),-0.137
5,CUL3_Q13618_462+464_LKTECGCQFTSK (UniProt Q13618),-0.185
6,DOK2_O60496_110_GDWVQAICLLAFPGQR (UniProt O60496),-0.0305
7,DDX59_Q5T1V6_453_LFKPPVLVFVDCK (UniProt Q5T1V6),-0.216
8,DOCK10_Q96BY6_2164_GVDQTCTR (UniProt Q96BY6),-0.162
9,DNAJB1_P25685_179_VSLEEIYSGCTKK (UniProt P25685),-0.362
10,DDX19A_Q9NUU7_392_VLVTTNVCAR (UniProt Q9NUU7),-0.0191
11,CORO1A_P31146_40_VSQTTWDSGFCAVNPK (UniProt P31146),0.0565
12,CPSF2_Q9P2I0_187_EIHLNGCSLEMLSRPSLLITDSFNATYVQPR (UniProt Q9P2I0),-0.633
13,DHX57_Q6P158_221_MCDGDVGASLEHLLTQCFSETFGER (UniProt Q6P158),-0.23
14,DNMT1_P26358_1476+1478_GVCSCVEAGK (UniProt P26358),-0.537
15,DAXX_Q9UER7_720_LSQTPHSQPPRPGTCK (UniProt Q9UER7),-0.584
